# Test results: PubChem BioAssay AID1468 (National Center for Advancing Translational Sciences (NCATS), 2008)
# About 1,100 (0.39%) of roughly 280,000 compounds were called active. The inconclusive results got no clear call from the source; some entries with a clear call stand among them for comparison. The call rests on the fitted dose curve; in most records, active means well fitted inhibition curve with a large enough effect; inconclusive means small, poorly fitted or top-dose-only effect, or effect the other way; inactive means flat fitted curve, though single readings scatter. No potency is given beside an inconclusive call; the fits are too rough.
# Biological target: Microtubule-associated protein tau (Homo sapiens) (UniProt P10636)
# Test: qHTS for Inhibitors of Tau Fibril Formation, Fluorescence Polarization; further: nearly all actives have a fitted effect of over 55% in size
# Settings: K18 P301L tau heparin fibrillization, Alexa594 FP, 6 h; series mostly up to 57.7 µM; activity, negative = inhibition: at the top concentration
# How it was run: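 K18 P301L tau (15 uM unlabeled/0.24 uM Alexa 594-labeled, final) + compound + heparin 20 uM final; 100 mM NaOAc pH 7; 6 hr 37 C; ThT 30 uM final added, 1 hr RT; FP ex 555/em 632 nm.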
# On the % scale 0 is the no-effect control and ±100 the full control effect; potency means the concentration at half of the fitted maximal effect; tags describe the fitted curve by direction and shape.
# UniProt P10636, sequence (P10636 whole entry, looked up): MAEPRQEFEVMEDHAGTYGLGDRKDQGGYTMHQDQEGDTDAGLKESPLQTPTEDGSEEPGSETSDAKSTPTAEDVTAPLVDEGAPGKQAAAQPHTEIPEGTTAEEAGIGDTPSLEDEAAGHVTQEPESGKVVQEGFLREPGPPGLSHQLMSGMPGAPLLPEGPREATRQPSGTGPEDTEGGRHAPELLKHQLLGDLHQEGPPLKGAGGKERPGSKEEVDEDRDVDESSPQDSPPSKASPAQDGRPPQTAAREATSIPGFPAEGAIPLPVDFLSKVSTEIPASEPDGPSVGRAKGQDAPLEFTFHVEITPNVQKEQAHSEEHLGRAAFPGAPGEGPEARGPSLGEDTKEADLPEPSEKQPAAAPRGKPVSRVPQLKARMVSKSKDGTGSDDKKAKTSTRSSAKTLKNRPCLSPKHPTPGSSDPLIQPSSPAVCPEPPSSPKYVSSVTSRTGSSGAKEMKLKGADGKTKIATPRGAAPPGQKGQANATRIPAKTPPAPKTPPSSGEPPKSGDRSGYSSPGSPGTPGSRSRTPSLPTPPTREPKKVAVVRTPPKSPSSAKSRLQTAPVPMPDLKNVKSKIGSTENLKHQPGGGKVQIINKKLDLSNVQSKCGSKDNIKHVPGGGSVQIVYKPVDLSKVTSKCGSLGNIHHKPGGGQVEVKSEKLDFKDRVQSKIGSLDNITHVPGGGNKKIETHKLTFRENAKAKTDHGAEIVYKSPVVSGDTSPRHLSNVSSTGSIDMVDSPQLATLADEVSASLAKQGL
SMILES,Potency,"activity, negative = inhibition"
CC(=O)Nc1ccc(S(=O)(=O)Oc2ccc(/C=N/NC(=O)c3ccc(Cl)cc3)cc2)cc1,active: 12.6 µM,
COc1ccc(NC(=O)CSC2=Nc3ccccc3C3=NC(Cc4ccccc4)C(=O)N23)cc1Cl (configuration not stated),,inactive: -9.09%
CCC(CC)c1nnc(NC(=O)c2cc(C(=O)OC)cc([N+](=O)[O-])c2)s1,,inactive: 7.07%
Cc1cc2nc(-c3ccc(SCc4ccc(C#N)cc4)nc3)[nH]c2cc1C,"inconclusive [inhibitor, partial curve]",
O=C(N/N=C/c1ccccc1OC(F)F)C1=COCCO1,"inconclusive [inhibitor, full curve, poor fit]",
Cc1ccc2nc(SCc3nc(-c4ccccc4C)no3)[nH]c2c1,"inconclusive [inhibitor, partial curve]",
Cc1c(C(=O)Oc2ccc(F)cc2)sc2ncn(Cc3cccc(F)c3)c(=O)c12,"inconclusive [inhibitor, partial curve, poor fit]",
O=C1NC(c2cccc([N+](=O)[O-])c2)=CCN1c1ccccc1O,inactive,
Cc1ccc2c(CC(=O)Nc3c(C(=O)Nc4cccc(Cl)c4)oc4ccccc34)coc2c1C,"inconclusive [inhibitor, partial curve]",
COc1ccc2cc(CNc3ccccc3)c(=O)n(CC(=O)Nc3ccc(C)cc3C)c2c1,"inconclusive [activator, partial curve, poor fit]",
Cn1c2c(c(=O)n(C)c1=O)C1(C(=O)Nc3ccccc31)C(C#N)=C(N)O2 (configuration not stated),"inconclusive [inhibitor, partial curve]",
CN(C)c1nc(N)nc(Cn2nnc(-c3ccc(C(F)(F)F)cc3)n2)n1,"inconclusive [inhibitor, partial curve]",
CCOC(=O)c1ccc(NC(=O)Cn2nnc(-c3ccccc3)n2)cc1,"inconclusive [inhibitor, single point]",
CCC/C=C(\CCC)C(NS(=O)(=O)CC12CCC(CC1=O)C2(C)C)c1ccc(C(=O)OC)cc1 (configuration not stated),,inactive: -0.005%
COc1ccc(NC(=S)NNC(=O)CNc2ccc(Cl)cc2)cc1,"inconclusive [activator, partial curve, poor fit]",
CCCn1c2ccccc2c2nnc(SC(CC)C(=O)Nc3sc4c(c3C#N)CCCC4)nc21 (configuration not stated),,inactive: -3.55%
Cc1ccc2[nH]c3c(N4CCc5ccccc5C4)ncnc3c2c1,"inconclusive [activator, partial curve]",
COCCn1c(C)cc(O)c(C(c2ccccc2OC)N2CCCCC2)c1=O (configuration not stated),,inactive: 2.39%
CC(C)(C)c1ccc(Oc2ccc(NC(=O)c3cccs3)cn2)cc1,active: 28.2 µM,
COc1cc(OC)cc(C(=O)N/N=C/c2ccc(OC)c(COc3ccc4ccccc4c3)c2)c1,"inconclusive [inhibitor, single point]",
COC(=O)CCCC1=CC2=CC(=O)C(C)(OC(=O)CCc3ccccc3)C(=O)C2=CO1 (configuration not stated),"inconclusive [inhibitor, single point]",

SMILES,Potency,"activity, negative = inhibition"
COc1cccc(/C=C2\N=C3CCCCCN3C2=O)c1,"inconclusive [inhibitor, single point]",
COc1ccc(-c2cc(CNS(=O)(=O)c3ccc(F)cc3)on2)cc1,,inactive: -3.57%
CCN(CC)N=Nc1ccc(S(N)(=O)=O)cc1,"inconclusive [inhibitor, partial curve, poor fit]",
CC(C)(C)C1CCC(C(=O)OCC(=O)Nc2ccc3[nH]c(=O)[nH]c3c2)CC1 (configuration not stated),"inconclusive [activator, partial curve]",
CCn1c(SCC(=O)c2ccccc2)nc2sc3c(c2c1=O)CCN(C)C3,"inconclusive [inhibitor, partial curve]",
Cc1ccc(NS(=O)(=O)c2ccc(Br)s2)nc1,"inconclusive [inhibitor, partial curve]",
CC(=O)N1CCN(C(=S)Nc2ccc(SC(F)F)cc2)CC1,,inactive: -7.8%
CCOC(=O)c1ccc(NC(=O)Cn2nnc(-c3ccc(C(F)(F)F)cc3)n2)cc1,"inconclusive [inhibitor, single point]",
CNC(=O)c1ccc(NC(=O)c2nsc3ccccc23)cc1,"inconclusive [inhibitor, single point]",
Cc1ccc(N2CC(c3nnc(Cc4ccc(F)cc4Cl)o3)CC2=O)cc1 (configuration not stated),,inactive: 1.33%
CCN1C(=O)[C@@H]2[C@H]3C(=CC[C@@H]2C1=O)C1(OCCCO1)[C@H]1O[C@@H]1[C@H]3O,"inconclusive [inhibitor, partial curve]",
N#Cc1sc2nc(-c3cccs3)cc(-c3ccc(F)cc3)c2c1N,"inconclusive [inhibitor, single point]",
COC(=O)c1ccc(OC)c(Cn2c(=O)n(-c3cccc(Cl)c3)c(=O)c3c2c2cc(C)ccc2n3C)c1,"inconclusive [inhibitor, single point]",
O=C(Cc1ccccc1)Nc1nc(-c2cccc([N+](=O)[O-])c2)cs1,,inactive: 6.4%
CC(C)=CCc1c(O)ccc(C(=O)Cc2ccccc2)c1O,active: 14.1 µM,
Nc1ccc(C(=O)N/N=C/c2sc(N3CCOCC3)nc2-c2ccccc2)cc1,"inconclusive [activator, partial curve]",
COc1ccc(-c2cc(C)no2)cc1S(=O)(=O)Nc1cccc(C(F)(F)F)c1,"inconclusive [inhibitor, partial curve]",
N#CCCn1cc(C(=O)Nc2ccc([N+](=O)[O-])cc2)c(-c2cc3ccccc3o2)n1,"inconclusive [inhibitor, partial curve]",
CC1=C(C(N)=O)C(c2ccc(C(C)C)cc2)n2nc(SCc3ccccc3F)nc2N1 (configuration not stated),,inactive: -11%
CC(=O)Nc1ccc(NC(=O)CN(c2ccc(C(C)C)cc2)S(=O)(=O)c2ccccc2)cc1,"inconclusive [inhibitor, single point]",
C=CCn1c(O)c(N=NC(=O)c2cccnc2)c2cc(Br)ccc21,,inactive: 12.4%
